Whole data set: some 110,000 compounds, median “z-score” near -0.1, cut for the highest 2% near 2. This is one part of the list. Activity calls are given as the source filed them.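 Rule for the calls: active = z-score in the third read window above 3 or below -3; inactive = the rest.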

The target of the test is Metabotropic glutamate receptor 8 (Rattus norvegicus) (UniProt P70579). In words: rat mGluR8 modulators via GIRK flux, primary screen, cell-based, thallium flux, HTS (AID 488969). The following applies: HEK293 rat mGluR8, GIRK (G protein-gated inwardly rectifying potassium channel) thallium flux, FluoZin2; at 10 µM; stronger effect = higher value; submaximal glutamate (EC20) added with thallium.
Chain of UniProt P70579 (P70579 whole entry, looked up): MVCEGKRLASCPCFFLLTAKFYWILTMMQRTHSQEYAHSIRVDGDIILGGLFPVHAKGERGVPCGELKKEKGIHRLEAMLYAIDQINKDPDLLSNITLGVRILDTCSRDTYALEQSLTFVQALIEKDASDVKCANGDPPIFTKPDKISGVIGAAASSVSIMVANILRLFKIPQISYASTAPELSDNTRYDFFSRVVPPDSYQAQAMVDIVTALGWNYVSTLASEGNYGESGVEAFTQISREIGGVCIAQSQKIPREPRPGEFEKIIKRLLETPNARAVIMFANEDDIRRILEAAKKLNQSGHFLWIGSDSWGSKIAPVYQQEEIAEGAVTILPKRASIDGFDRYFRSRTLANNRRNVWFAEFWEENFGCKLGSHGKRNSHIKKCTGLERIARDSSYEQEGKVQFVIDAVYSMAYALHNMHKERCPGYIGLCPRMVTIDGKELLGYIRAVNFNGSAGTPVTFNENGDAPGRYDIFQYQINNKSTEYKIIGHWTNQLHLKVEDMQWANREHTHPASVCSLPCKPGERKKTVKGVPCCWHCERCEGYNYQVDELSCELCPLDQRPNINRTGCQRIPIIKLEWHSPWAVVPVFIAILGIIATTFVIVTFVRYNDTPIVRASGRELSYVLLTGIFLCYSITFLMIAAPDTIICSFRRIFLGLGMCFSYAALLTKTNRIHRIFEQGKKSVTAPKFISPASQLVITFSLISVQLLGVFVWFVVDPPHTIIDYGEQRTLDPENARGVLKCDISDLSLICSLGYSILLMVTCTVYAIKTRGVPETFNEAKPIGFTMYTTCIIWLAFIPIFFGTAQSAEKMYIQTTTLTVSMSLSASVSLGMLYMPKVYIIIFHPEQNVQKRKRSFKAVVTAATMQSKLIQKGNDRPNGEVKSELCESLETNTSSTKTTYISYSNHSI
In turn, `CC1Cc2ccccc2N1C(=O)Cn1cc([N+](=O)[O-])cn1` (centres undefined) yielded a z-score of 0.028.

Regarding `CC1CN(C(NC(=O)C(C)(C)C)C(Cl)(Cl)Cl)CC(C)O1` (centres undefined), the z-score was -0.239. Next, `COc1ccc2c(c1)C(=O)C(=O)N2`: 0.231.

Take `O=C(NCCCN1CCCC1=O)c1cccnc1`: the z-score was 0.295. As for `Cc1ccc(S(=O)(=O)N(C)C)cc1NC(=O)COC(=O)c1ccc2c(c1)OCO2`, the figure is 1.63; as for `O=C(NC1(C(F)(F)F)C(=O)Nc2c1c(=O)[nH]c(=O)n2-c1ccc(F)cc1)c1cccnc1` (centres undefined), -0.0735.

Turning to `CCn1c(NC(=O)c2ccc(COc3ccc(C)cc3[N+](=O)[O-])o2)nc2ccccc21`, the z-score was -0.789. Next, `CCOC(=O)c1cc2c(=O)n3cccc(C)c3nc2n(CCOC)c1=NC(=O)c1ccncc1`: 0.508; `O=C(Nc1ccc(Cl)cc1)N1CCCN(Cc2ccccc2F)C1`: -0.218. As for `COc1ccc(C(=O)Nc2ccc(S(=O)(=O)Nc3onc(C)c3C)cc2)cc1`, the figure is 0.375; as for `Cc1ccc(-c2cc(C(=O)N/N=C/c3c(C)nn(C)c3C)c3ccccc3n2)cc1C`, -0.146; as for `COC(=O)C1=C(C)NC(=O)NC1c1cccc(OC)c1OCc1ccccc1` (centres undefined), -0.318. As for `CC1CCCC(C)N1C(=O)COC(=O)c1ccc[nH]c1=O` (centres undefined), the figure is 0.601. `CCCCOC(=O)NCN1C(=O)C2C3C=CC(C3)C2C1=O` (centres undefined) displayed a z-score of 0.62.

As for `CCn1c(COc2ccccc2C)nnc1SCC(=O)N1CCCCC1`, the z-score came to 0.371. For `Cc1ccc(Cn2ccc(NC(=O)c3cc(C)on3)n2)cc1`, the z-score is -0.0436.

`COc1cc(/C=C(/C(=O)c2cccs2)c2nc3ccccc3[nH]2)ccc1O`: the z-score is 0.561.

In the case of `O=C(NN1CCOCC1)c1cc(-c2cccc(Cl)c2)nc2ccccc12`, the z-score is -0.126. As for `O=c1cc(N2CCN(c3cccc(Cl)c3)CC2)[nH]c(=O)n1C1CCCCC1`, the figure is -0.16; as for `CCOC(=O)C1(Cc2ccc(O)cc2)NC(c2ccccc2F)C2C(=O)N(C)C(=O)C21` (centres undefined), -0.227; as for `CCOC(=O)C(C)Sc1nc2ccccc2c(=O)n1CC` (centres undefined), -0.22. Next, `COC(=O)COc1nsnc1N1CCOCC1`: 0.175; `O=CNCC(=O)NC1CCCCCC1`: -0.213; `O=C(O)c1cc(Cl)c(Cl)cc1C(=O)Nc1cccc2cccnc12`: -0.462. For the molecule `CCN(CC)S(=O)(=O)c1cc(-c2nnc(-c3ccc(Br)cc3)o2)ccc1Br`, the z-score was -0.294. Next, `Cc1nc2scc(-c3ccc(Cl)cc3)c2c(=O)o1`: 0.315; `CCN1CCN(C(=S)Nc2ccc(Cl)c(Cl)c2)CC1`: -0.229; `CCOC(=O)c1c(C)[nH]c(C(=O)COC(=O)/C=C/c2ccc3c(c2)OCO3)c1C`: 0.00271. In the case of `COc1ccc(C(=O)Oc2c(CN3CCOCC3)cc(Cl)c3cccnc23)cc1OC`, the z-score was -0.19. In the case of `COc1ccc(OC)c(NS(=O)(=O)c2ccc(NC(=O)C3COc4ccccc4O3)cc2)c1` (centres undefined), the z-score amounted to 0.498. Take `CC(C)(C)NS(=O)(=O)c1ccc(NC(=O)C(Sc2ccccc2)c2ccccc2)cc1` (centres undefined): the z-score is 0.111. Next, `O=C(Nc1sc2c(c1C(=O)NCc1cccnc1)CCCC2)c1ccco1`: -1.12. Next, `CCOC(=O)c1c[nH]c2c(C)cc(C)cc2c1=O`: 0.0125; `O=C(CNC(=O)c1ccccc1Cl)N/N=C/c1ccc([N+](=O)[O-])s1`: -0.607; `Cc1ccccc1-c1ccc(Nc2ccc(N3CCOCC3)cc2)nn1`: 0.369.

With `O=C1CC(N2CCC(c3nc4ccccc4o3)CC2)C(=O)N1Cc1cccs1` (centres undefined), the z-score is 0.689. As for `O=C(c1cccs1)N1CCN(C(=O)c2ccco2)c2ccccc2C1`, the figure is 0.586; as for `CSc1nc(NC(C)=O)nc(C)c1Cl`, 1.54. As for `Cc1cc(C)cc(Nc2nc3c(S(=O)(=O)c4ccccc4)nnn3c3ccccc23)c1`, the figure is -0.244; as for `Cc1[nH]c(=O)[nH]c(=O)c1S(=O)(=O)N1CCN(c2ccccc2F)CC1`, 0.1; as for `O=C(O)CCC(=O)NC1CCCCC1NC(=O)CCC(=O)O` (centres undefined), 2.2.

In the case of `CCc1ccc(C2=C/C(=C/c3cccnc3)C(=O)O2)cc1`, the z-score was -0.0742.

Take `O=C(Cn1cc(C(=O)C2CC2)c2ccccc21)NCc1ccc2c(c1)OCO2`: the z-score is -0.87. Next, `Cc1cc2cc3c(cc2nc1SCC(=O)N1c2ccccc2CC1C)OCO3` (centres undefined): -0.377; `CCC(C)Sc1nc(C)nc2c1c(=O)n(C)c(=O)n2C` (centres undefined): -0.806; `S=C(Nc1cccc2ccccc12)NN1CCOCC1`: 0.136.

As for `COc1cc(/C=N/NC(=O)CSc2cc(C)c(Br)cc2C)ccc1O`, the z-score was -0.102.

Consider `N#CCSC1=Nc2ccccc2C2=NC(CCC(=O)N3CCN(c4ccccc4)CC3)C(=O)N12` (centres undefined), for which the z-score was -0.493. With `Cc1ccc(SCc2nc3ccccc3n2CC(=O)Nc2c(C)cccc2C)cc1`, the z-score was -0.279. In turn, `CCCOc1ccc(NC(=O)c2c(-c3ccccc3)noc2C)cc1` returned a z-score of 0.892. `Cc1cc(C)c2c(N)c(C(=O)NCc3ccco3)sc2n1` registered a z-score of 1.04.

Regarding `O=C1CCCc2c1[nH]c1c(Br)cccc21`, the z-score is -1.04.

Regarding `CC(C)(C)c1ccc(CNc2ccc([N+](=O)[O-])cn2)cc1`, the z-score was -0.139. For the molecule `COc1ccc(/C(O)=C/C(=O)C(=O)NNC(=O)C(O)(c2ccccc2)c2ccccc2)cc1`, the z-score is -0.343.

`O=c1c2ccccc2nc2n1CCCS2`: the z-score came out at 0.17. As for `CCc1ccc(N(C(=O)c2csnn2)C(C(=O)NC(C)(C)C)c2ccncc2)cc1` (centres undefined), the figure is -0.302; as for `CCn1c(NC(=O)C2CCCCC2)nc2ccccc21`, 0.0465. Next, `COc1ccccc1Nc1nc2nonc2nc1N1CCC(C)CC1`: -0.00241; `Cc1ccc(S(=O)(=O)/N=C(\Sc2ccccc2)c2ccccc2)cc1`: -0.334.

`NC(=O)C1(N2CCCCC2)CCN(C(=O)CSc2nc3ccccc3o2)CC1`: the z-score is -0.0448.

Turning to `COc1ccc2c(=O)c3c(=O)n(Cc4ccco4)c(-c4ccco4)nc3oc2c1`, the z-score was -0.397. As for `O=C(CN1CCOCCOCCOCCOCC1)Nc1ccccc1`, the figure is 0.356. Next, `Cc1ccc(NC(NC(=O)OCCn2c([N+](=O)[O-])cnc2C)C(Cl)(Cl)Cl)cc1` (centres undefined): -0.062; `COc1cc(NC(=O)CSc2c3c(nc4ccccc24)CCC3)cc(OC)c1OC`: -0.484; `CCN(CC)c1nc2cc(OC)ccc2cc1C#N`: -0.0869.

Regarding `Cc1ccc2cccc(NC(=S)NC(=O)c3ccn(C)n3)c2n1`, the z-score is active: 6.02. Consider `CCOC(=O)C1CCN(C(=O)CCCN2C(=O)c3ccccc3C2=O)CC1`, for which the z-score is -0.664.

Consider `Cc1noc(/C=C/c2ccco2)c1S(=O)(=O)N1CCC(C(=O)N(C)Cc2ccccc2)CC1`, for which the z-score is -1.36. Molecule `Cc1ccc(S(=O)(=O)N2CCOCC2)cc1C(=O)N1c2ccccc2Sc2ccccc21` returned a z-score of 0.231. Regarding `COC(=O)C(C)N(C(=O)c1ccc(Cl)cc1)c1c(C)cccc1C` (centres undefined), the z-score was -1.48. Next, `CCCn1c(=O)c(C(=O)Nc2ccccc2)c(O)c2ccccc21`: -0.0454; `SC(COCc1ccccc1)CN1CCN(Cc2ccc3c(c2)OCO3)CC1` (centres undefined): active: 3.02.

Molecule `Cc1cc2ncn(C(=O)c3ccc4c(c3)OCO4)c2cc1C` yielded a z-score of 0.0971. Next, `COc1cccc(OC)c1C(=O)Oc1ccc2c(c1)O/C(=C\c1ccncc1)C2=O`: 0.431; `COc1ccccc1CC(=O)N1CCCC1`: -0.143; `COc1cc(NC(=O)C2=C(N3CCOCC3)/C(=C\c3ccc(N(C)C)cc3)CCC2)cc(OC)c1OC`: -0.105. Take `Cc1ccc(C(=O)NCCSC2CCCCC2)cc1S(=O)(=O)Nc1ccccc1`: the z-score is -0.211. `COc1ccccc1N=C1SC(C)CN1C(=O)C1CCC1` (centres undefined): the z-score is 0.297.

On to `COc1ccc(C(c2sc3ncnn3c2O)N2CCN(c3ccccc3F)CC2)cc1OC` (centres undefined), for which the z-score was -0.6. With `O=C(Nc1ccc(NC(=S)NC(=O)C(c2ccccc2)c2ccccc2)cc1)c1ccccc1`, the z-score is 0.283.

Take `Cc1cc(C)c2cc(C)c3nnc(SCC(=O)NCc4ccc5c(c4)OCO5)n3c2c1`: the z-score is -0.513. As to `CCN1CCN(C(=O)CN(c2cccc(Br)c2)S(=O)(=O)c2ccccc2)CC1`, the z-score is -0.269. As for `COc1ccc(/C=N/n2c(=O)[nH]c3c([nH]c4ccc(C)cc43)c2=O)cc1CN1CCOCC1`, the figure is -0.0345; as for `O=C(Nc1nnc(-c2ccc(Cl)cc2)o1)c1cccc(N2C(=O)CCC2=O)c1`, active: 3.29; as for `CCC1(C)CC(C(CC(=O)O)c2ccc(C)cc2)CCO1` (centres undefined), -0.199.

In turn, `CC(NCCOCCOc1ccccc1)c1ccccc1` (centres undefined) registered a z-score of 0.0881. Next, `CC(=O)c1ccc(N(C)C)cc1`: -0.896; `Cc1cc(C)c2nc(SCC(=O)NCCN3C(=O)CSC3=O)cc(C)c2c1`: -0.238; `O=C1c2cccc3cccc(c23)C(=O)N1CC1CCN(CC(O)COCc2ccc3c(c2)OCO3)CC1` (centres undefined): 0.758. Next, `CCOC(=O)N1CCN(c2ccc(C(C)=O)cc2F)CC1`: -0.263; `COc1cc(C2NC(C(=O)O)Cc3c2[nH]c2ccccc32)cc(OC)c1OC` (centres undefined): -0.234; `Cc1cc(C)n(-c2nnc(C)n2/N=C/c2ccco2)n1`: 1.04. In the case of `CC1CCCCN1C(=O)N[C@@H](Cc1ccccc1)C(=O)O` (some centres undefined), the z-score was -0.3. Next, `NNC(=O)c1ccc(Cl)cc1Cl`: -0.0992. As for `Cc1cc(C(=O)Nc2sc3c(c2C#N)CCC(C)C3)cs1` (centres undefined), the figure is 0.144. Take `CS(=O)(=O)N(CC(=O)N1CCCC1)Cc1ccc(Cl)cc1`: the z-score was -0.52. As for `COC(=O)c1ccc(NC(=O)C(=O)N2CCN(C(=S)Nc3ccc(OC)cc3)CC2)cc1`, the figure is -0.0415; as for `CCCC(C(=O)NC1CCCC1)N(CC1CCCO1)C(=O)c1snc(C(N)=O)c1N` (centres undefined), -0.243; as for `CC(NC(=O)CSc1nc2c(c(C(F)(F)F)n1)CCc1ccccc1-2)c1ccccc1` (centres undefined), 0.0834.

As to `Cn1nnc2cc(C(=O)NCc3ccco3)ccc21`, the z-score worked out at 0.326.

For `Cc1cc(OCC(=O)NC(C)C)cc(C)c1Cl`, the z-score was -0.16. Next, `CCOc1ccc(C(=O)NCC(=O)OCc2csc(-c3ccccc3)n2)cc1`: -0.162; `O=C(CSc1nnc(-c2ccccc2)c(-c2ccccc2)n1)N1CCOCC1`: 0.388; `CCn1nc(C)c(NS(=O)(=O)c2ccc(C)cc2)c1C`: 0.741. With `COc1cc(C2C(Oc3ccccc3C)C(=O)N2Cc2ccc(F)cc2)cc(OC)c1OC` (centres undefined), the z-score was -0.106. As for `CCc1c(C)sc(NC(=O)c2ccc(Br)o2)c1C(=O)OC`, the figure is -0.376. On to `COc1ccc(-c2noc(CCC(=O)NCCN(C)Cc3ccccc3)n2)cc1`, for which the z-score came out at 0.311. In the case of `Fc1ccccc1CSc1nncn1NCc1cccs1`, the z-score is 0.114. Next, `CCCNC(=O)c1ccc(N(Cc2ccccc2)S(C)(=O)=O)cc1`: -0.332.
